Several values for one entry are separate records, joined by “and”; a condition that tells them apart may be missing. Identical values can stand only once. In all, about 350,000 compounds went through this assay and about 31,000 (8.9%) were called active. Inconclusive results, whose numbers are uncertain, are shown with a selection of clear calls. Calls follow the shape of the dose curve; as a rule, active = well fitted inhibition curve with a large enough effect; inconclusive = small, poorly fitted or top-dose-only effect; inactive = no such curve, though single readings can be large or run the other way. Potencies beside an inconclusive call are fits to weak or partial responses and may not hold up.
Biological target: Histone-lysine N-methyltransferase EHMT2 (Homo sapiens) (UniProt Q96KQ7)
Sequence of UniProt Q96KQ7 (Q96KQ7 whole entry, looked up): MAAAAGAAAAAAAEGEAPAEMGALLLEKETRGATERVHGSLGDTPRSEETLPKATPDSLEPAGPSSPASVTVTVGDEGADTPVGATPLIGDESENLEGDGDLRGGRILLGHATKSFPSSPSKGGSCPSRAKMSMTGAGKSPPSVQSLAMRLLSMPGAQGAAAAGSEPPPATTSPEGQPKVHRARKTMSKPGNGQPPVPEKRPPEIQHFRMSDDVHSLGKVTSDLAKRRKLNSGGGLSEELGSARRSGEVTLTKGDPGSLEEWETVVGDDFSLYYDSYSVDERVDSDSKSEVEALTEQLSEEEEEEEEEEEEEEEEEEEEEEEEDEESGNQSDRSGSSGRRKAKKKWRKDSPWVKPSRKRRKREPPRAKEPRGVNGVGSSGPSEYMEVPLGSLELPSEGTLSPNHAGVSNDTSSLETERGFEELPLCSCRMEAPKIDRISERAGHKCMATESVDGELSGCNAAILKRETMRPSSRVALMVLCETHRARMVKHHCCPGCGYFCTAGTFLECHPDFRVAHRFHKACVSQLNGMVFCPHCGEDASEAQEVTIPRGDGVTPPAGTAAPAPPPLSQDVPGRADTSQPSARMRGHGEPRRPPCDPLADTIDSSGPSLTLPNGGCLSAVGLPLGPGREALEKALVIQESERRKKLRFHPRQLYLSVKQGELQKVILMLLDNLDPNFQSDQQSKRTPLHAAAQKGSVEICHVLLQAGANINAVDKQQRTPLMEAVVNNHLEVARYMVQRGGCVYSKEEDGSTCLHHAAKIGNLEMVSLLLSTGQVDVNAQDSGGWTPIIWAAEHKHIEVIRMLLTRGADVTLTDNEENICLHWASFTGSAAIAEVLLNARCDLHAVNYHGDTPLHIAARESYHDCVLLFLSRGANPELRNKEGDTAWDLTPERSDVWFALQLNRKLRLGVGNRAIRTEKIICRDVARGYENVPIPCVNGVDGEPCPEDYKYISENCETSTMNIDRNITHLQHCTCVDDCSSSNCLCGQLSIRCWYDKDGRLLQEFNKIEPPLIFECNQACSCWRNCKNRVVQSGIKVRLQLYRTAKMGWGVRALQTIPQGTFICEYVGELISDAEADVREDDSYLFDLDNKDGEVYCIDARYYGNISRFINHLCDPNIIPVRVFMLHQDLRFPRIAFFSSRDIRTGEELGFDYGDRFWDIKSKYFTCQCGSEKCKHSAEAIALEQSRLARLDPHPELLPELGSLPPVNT
Experiment: qHTS Assay for Inhibitors of Histone Lysine Methyltransferase G9a; also: nearly all actives have a fitted effect of over 75% in size
Details: G9a H3K9 monomethylation, AlphaScreen, 2 h; activity, negative = inhibition: at 59 µM (top of the series) unless noted
How it was run: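 Readings reflect AlphaScreen signal from monomethyl-H3K9 antibody detection. HMT at 20 nM; substrate b-H3K9 500 nM; cofactor SAM 20 uM; 2 h RT reaction; compounds tested as titrations in qHTS with 15 min preincubation.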
% is scaled to controls: 0 for no effect and ±100 for the full control effect; potency is read from the fitted curve at half-maximal effect; tags tell the direction and shape of the fitted curve.

Structure (SMILES)	Potency	activity, negative = inhibition
CCN1CCN(c2ccc(N)c(C)c2)CC1	active: 44.7 µM	
COc1ccccc1CN1CCN(C(=O)COc2cccc(C)c2)CC1	inconclusive: 1.41 µM [inhibitor, full curve, poor fit] and inconclusive: 17.8 µM [inhibitor, full curve, poor fit]	
Cc1cc(C(=O)C[N+]23CCN(CC2)CC3)c(C)n1-c1ccc(Br)cc1	inconclusive: 89.1 µM [inhibitor, partial curve, poor fit]	
CCOc1ccccc1-n1c(O)c(C=Nc2c(C)n(C)n(-c3ccccc3)c2=O)c(=O)[nH]c1=O	inconclusive: 89.1 µM [inhibitor, single point]	
CCCN(CC#CCOc1ccc(OC)cc1)CCC	active: 8.91 µM	
CCOc1ccc(CN(CCc2ccc3c(c2)OCO3)Cc2ccc(CC)cc2)cc1	inconclusive: 0.794 µM [inhibitor, full curve, poor fit]	
CCN1CCN(Cc2cc(Br)cc(Br)c2O)CC1	inconclusive: 3.55 µM [inhibitor, partial curve, poor fit]	
Cc1ccc2[nH]c(C)c(CCNCc3ccco3)c2c1	inconclusive: 79.4 µM [inhibitor, single point]	
O=C(Oc1ccccc1)N1CCC2(CC1)CCN(C(c1ccccc1)c1ccccc1)CC2		inactive: 3.9% [at 12.7 µM]
CC(Cc1ccccc1Sc1ccccc1)N(C)C (stereo not drawn)	inconclusive: 31.6 µM [inhibitor, partial curve, poor fit]	
O=c1c2ccccc2nc(/C=C/c2ccc([N+](=O)[O-])o2)n1-c1ccc(O)cc1	active: 50.1 µM	
COc1cc2c(cc1/C=C/[N+](=O)[O-])OCO2	inconclusive: 11.2 µM [inhibitor, partial curve, poor fit]	
COc1ccccc1N1C(=O)NC(=O)/C(=C/c2ccc3c(c2)Cc2ccccc2-3)C1=O	inconclusive: 20 µM [inhibitor, partial curve, poor fit]	
O=C(COc1ccc2ccccc2c1)N1CCN(Cc2ccncc2)CC1	active: 6.31 µM	
O=C(Nc1ccccc1)N1CCC2(CC1)OCCO2	inactive	
C[CH2][Hg][S]c1ccccc1C(=O)O		inconclusive: -126% [inhibitor] [at 2.33 µM]
O=C1NC(=S)N(Cc2ccco2)C(=O)/C1=C\c1cccs1	active: 3.16 µM	
COC(=O)C1=C(c2ccc(OC)c(OC)c2)C[C@@H]2CC[C@H]1N2C(=O)NCCc1ccccc1		inactive: -10.5% [at 2.33 µM]
Cc1cc(S(N)(=O)=O)ccc1N=Cc1c(O)n(-c2ccccc2)c(=O)[nH]c1=O	inconclusive: 8.91 µM [inhibitor, partial curve]	
Cc1ccc(S(=O)(=O)Nc2cc(C(=O)N3CCC4(CC3)OCCO4)ccc2N2CCCCC2)cc1	inconclusive: 17.8 µM [inhibitor, single point]	
CC1=NN(c2ccccc2)C(=O)/C1=C/c1c(O)[nH]c(=S)[nH]c1=O		inconclusive: -90.8% [inhibitor]
Cc1ccc(/C=C2\C(=O)NC(=S)N(c3ccccc3F)C2=O)s1	inconclusive: 2.51 µM [inhibitor, full curve, poor fit]	

Structure (SMILES)	Potency	activity, negative = inhibition
O=[N+]([O-])c1cc([As](=O)(O)c2ccc(O)c([N+](=O)[O-])c2)ccc1O	inconclusive: 79.4 µM [inhibitor, single point]	
CCn1ncc(-c2ccnc3cc(C(=O)O)nn23)c1C	inconclusive: 56.2 µM [inhibitor, partial curve, poor fit]	
Cn1c(=O)cc(SCC(=O)N2CCC3(CC2)OCCO3)c2ccccc21	inconclusive: 0.112 µM [inhibitor, full curve, poor fit]	
Cc1cccc(N=Cc2c(O)n(-c3ccccc3C)c(=O)[nH]c2=O)c1	inactive	
COc1cc2c(cc1OC)C(C)N(C(=O)c1nccnc1C(=O)O)CC2 (stereo not drawn)	inconclusive: 70.8 µM [inhibitor, partial curve, poor fit]	
C1CCCN(C2CCNCC2)CC1	inconclusive: 89.1 µM [inhibitor, single point]	
CCCCn1c(N)c(C(=O)OCC2CCCO2)c2nc3ccccc3nc21 (stereo not drawn)	inconclusive: 1.78 µM [inhibitor, partial curve, poor fit]	
O=C(COc1ccc(Cl)cc1)N1CCN(C2CCCC2)CC1	active: 8.91 µM	
CCCc1nc(SC)ncc1C(=O)Nc1ccc(Cl)cc1C(=O)c1ccccc1	inactive	
O=[N+]([O-])c1ccc(N2CCNCC2)cc1N1CCCCCC1	inconclusive: 50.1 µM [inhibitor, partial curve, poor fit]	
O=C1NC(=O)[C@]2(Cc3ccccc3N3CCN(c4ccccc4)CC32)C(=O)N1c1ccccc1 (stereo partly drawn)	active: 3.16 µM	
COCCn1c(O)c(/C=N/NC(=O)CSC(=S)N2CCCC2)c(=O)[nH]c1=S	inactive	
C#CCN1CCN(c2ccc(F)cc2)CC1		inactive: 23.7% [at 12.7 µM]
Oc1c(Br)cc(Br)cc1Oc1ccc(Br)cc1Br	inconclusive: 89.1 µM [inhibitor, single point]	
Cc1ccc(C)c(S(=O)(=O)Nc2ccc3c(c2)CCCN3C(=O)c2cccs2)c1	inconclusive: 1.41 µM [inhibitor, single point]	
O=C(Nc1ncc(Cc2ccccc2)s1)C1=NCCN1	inconclusive: 39.8 µM [inhibitor, full curve]	
O=[N+]([O-])c1ccc(-c2[se]c3ccccc3c2I)cc1	inconclusive: 14.1 µM [inhibitor, partial curve, poor fit]	
O=C(O)CNC(=O)C(CS)Cc1ccccc1 (stereo not drawn)	inactive	
CN1CCC2(CC1)C(C#N)=C(N)NC(S)=C2C#N	active: 1.78 µM and active: 6.31 µM	
COCCn1c(SCc2ccccc2Cl)nc2c1c(=O)[nH]c(=O)n2C	inconclusive: 39.8 µM [inhibitor, single point]	
COC(=O)C(O)(c1c(C)[nH]n(-c2ccccc2)c1=O)C(F)(F)F (stereo not drawn)	active: 31.6 µM	
